# Results taken from PubChem BioAssay AID1030 (National Center for Advancing Translational Sciences (NCATS), 2008).
# Out of some 220,000 compounds screened, about 16,000 (7.3%) were called active. The shares of active, inactive and inconclusive entries below differ from those in the screen. The call rests on the fitted dose curve; in most records, active means well fitted inhibition curve with a large enough effect (not every such curve was filed as active); inconclusive means small, poorly fitted or top-dose-only effect, or another doubt; inactive means no such curve, though single readings can be large or run the other way. No potency is given beside an inconclusive call; the fits are too rough.
# Target: Aldehyde dehydrogenase 1A1 (Homo sapiens) (UniProt P00352)
# UniProt P00352, sequence (P00352 whole entry, looked up): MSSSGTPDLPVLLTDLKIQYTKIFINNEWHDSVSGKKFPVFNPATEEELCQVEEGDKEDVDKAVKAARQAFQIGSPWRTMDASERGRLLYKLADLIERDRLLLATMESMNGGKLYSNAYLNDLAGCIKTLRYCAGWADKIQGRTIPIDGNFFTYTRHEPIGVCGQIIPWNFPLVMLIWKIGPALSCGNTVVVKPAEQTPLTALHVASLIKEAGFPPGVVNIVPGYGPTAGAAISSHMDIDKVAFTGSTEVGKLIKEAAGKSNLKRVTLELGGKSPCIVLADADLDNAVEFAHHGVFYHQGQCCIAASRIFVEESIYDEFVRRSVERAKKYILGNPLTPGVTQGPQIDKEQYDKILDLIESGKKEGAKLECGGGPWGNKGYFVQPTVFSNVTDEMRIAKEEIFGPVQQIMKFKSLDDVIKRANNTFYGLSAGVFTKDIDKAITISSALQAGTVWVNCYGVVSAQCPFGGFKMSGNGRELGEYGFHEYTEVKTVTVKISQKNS
# Assay: qHTS Assay for Inhibitors of Aldehyde Dehydrogenase 1 (ALDH1A1)
# Conditions: Purified ALDH1A1, NADH fluorescence, propionaldehyde substrate; series mostly up to 75.3 µM
# Potency means the concentration at half of the fitted maximal effect; tags describe the fitted curve by direction and shape.
row,Compound,Potency
1,O=S(=O)(c1cccc(-c2nnc3n2CCCCC3)c1)N1CCCC1,inactive
2,[O-]/C(=C(\C(=S)Nc1cccc2ccccc12)[n+]1ccccc1)c1ccc2c(c1)OCCO2,active: 10 µM
3,Fc1ccc(-c2nnc3n2CCCCC3)cc1,inactive
4,Nc1nnc(-c2ccccc2F)s1,"inconclusive [inhibitor, single point]"
5,O=C1C2CCCCC2C(=O)N1c1ccc(NC2CCN(Cc3ccccc3)CC2)c([N+](=O)[O-])c1 (stereo unspecified),"inconclusive [inhibitor, single point]"
6,Oc1ccccc1-c1nc2cnccn2c1Nc1ccc2c(c1)OCCO2,"inconclusive [inhibitor, single point]"
7,COc1ccc(N2CCN(Cc3cc(OC)c(O)c([N+](=O)[O-])c3)CC2)cc1,"inconclusive [inhibitor, partial curve]"
8,O=C(c1cccs1)N1C(=O)c2cccc3cccc1c23,"inconclusive [inhibitor, single point]"
9,CCc1nc(Sc2nnnn2-c2ccccc2)c2c3c(sc2n1)CCCC3,"inconclusive [inhibitor, single point]"
10,Cc1ccc(CN2CCN(C3CSCCSC3)CC2CCO)cc1 (stereo unspecified),"inconclusive [inhibitor, single point]"
11,CS(=O)(=O)N(CC(=O)NCCSCc1c(F)cccc1Cl)c1cccc([N+](=O)[O-])c1,"inconclusive [inhibitor, single point]"
12,Cn1cnnc1SCC(=O)N1N=C2/C(=C/c3ccco3)CCCC2C1c1ccco1 (stereo unspecified),active: 15.8 µM
13,Cc1ccc(N2C(=O)CS/C2=C(\C(Cl)=C(Cl)Cl)[N+](=O)[O-])cc1,active: 20 µM
14,CC1CCC2(OC1)OC1CC3C4CC[C@@H]5CC(O)CC[C@@]5(C)C4CC(=O)[C@]3(C)C1C2C (stereo partly specified),inactive
15,Cc1ccc2c(Cl)cc(Cl)c(OCC(=O)Nc3cc(C)on3)c2n1,inactive
16,C=C(Nc1ccc(OC)cc1)C(=O)OC,"inconclusive [inhibitor, single point]"
17,COc1ccc(C(=O)Nc2ccc(S(=O)(=O)Nc3cc(C)nc(C)n3)cc2)cc1OC,active: 10 µM
18,CC1(C)CC(NC(=O)C23CCC(C)(/C(=N/O)C2)C3(C)C)CC(C)(C)N1 (stereo unspecified),inactive
19,CCOC(=O)/C(C#N)=C\C1=C(N2CCCC2)CC(C)(CC)OC1 (stereo unspecified),"inconclusive [inhibitor, single point]"
20,COc1ccc(CN2CCN(Cc3cccc4nonc34)CC2CCO)c(C)c1C (stereo unspecified),inactive
21,CCn1nc(C)c([N+](=O)[O-])c1C(=O)NNC(=O)c1ccc(Cl)cc1,"inconclusive [inhibitor, single point]"
22,OCC#CCSc1nnc(-c2ccccc2Br)o1,active: 20 µM
23,CCn1c(CNc2ccc(Cl)cc2)nnc1SCC(=O)OC1CCCCC1,"inconclusive [inhibitor, single point]"

row,Compound,Potency
1,COc1ccc(/C=C/CN2CCC(CO)(Cc3ccccc3Cl)CC2)cc1,inactive
2,COC(=O)NC(CCc1ccccc1)C(C(=O)OC)C(=O)OC (stereo unspecified),inactive
3,O=C(CSc1nc2c(sc3ccccc32)c(=O)n1CCCN1CCCC1)NCc1ccco1,"inconclusive [inhibitor, single point]"
4,CN1CCN(c2ncnc3ccc(-c4ccccc4C(F)(F)F)cc23)CC1,"inconclusive [inhibitor, single point]"
5,CCCOc1ccc(N2C(=O)CC(NCc3ccc(S(N)(=O)=O)cc3)C2=O)cc1 (stereo unspecified),"inconclusive [inhibitor, single point]"
6,COc1ccc(OC)c(NS(=O)(=O)c2ccc(NC(=O)c3ccc(NS(C)(=O)=O)cc3)cc2)c1,"inconclusive [inhibitor, partial curve]"
7,Cc1cc(=O)oc2cc(OCC(=O)N/N=C/c3cc([N+](=O)[O-])ccc3O)ccc12,"inconclusive [inhibitor, partial curve]"
8,CC1CCC2C(=O)N3C(CCC(C)C3c3ccc(-c4ccco4)cc3)C(=O)N2C1c1ccc(-c2ccco2)cc1 (stereo unspecified),active: 3.16 µM
9,CCOC(=O)CSc1nc2ccccc2c(=O)n1CC(C)C,"inconclusive [inhibitor, partial curve]"
10,O=C(CN1CCN(S(=O)(=O)c2ccc3ccccc3c2)CC1)N1CCc2ccccc2C1,"inconclusive [inhibitor, single point]"
11,CC(C)(C)NC(=O)[C@@H]1C[C@@H]2CCCC[C@@H]2CN1C[C@@H](O)[C@H](Cc1ccccc1)NC(=O)[C@H](CC(N)=O)NC(=O)c1ccc2ccccc2n1,"inconclusive [inhibitor, single point]"
12,CCOC(=O)c1cnc(SCC(=O)N2CCc3ccccc32)nc1N,inactive
13,O=C1NN=C(c2ccccc2)CC1c1ccc(Cl)cc1Cl (stereo unspecified),"inconclusive [inhibitor, single point]"
14,CCOC(=O)c1sc(NC(=O)C2CC=CCC2C(=O)O)nc1C (stereo unspecified),active: 0.126 µM
15,CC(C)=C(C#N)c1nc2ccccc2s1,inactive
16,Cc1ccc(NC(=O)NC2=NN(c3ccccc3)C(=O)/C2=C2/CCCN2C)cc1,active: 7.08 µM
17,CCOc1ccc(Nc2nc3c(c(=O)[nH]2)CCCC3)cc1,inactive
18,Cc1ccc(C)n1-c1ccc(N2CCOCC2)cc1,active: 7.08 µM
19,CCOC(=O)N1CCN(S(=O)(=O)c2ccc(C)cc2)C1c1ccc(OC)cc1 (stereo unspecified),"inconclusive [inhibitor, single point]"
20,CCCc1ccc(OCC(=O)Nc2cc(S(=O)(=O)CC)ccc2O)cc1,"inconclusive [inhibitor, single point]"
21,COC(=O)c1ccc(N2C(=O)CC(N3CCOCC3)C2=O)cc1 (stereo unspecified),active: 28.2 µM
22,COc1ccc2nc(Nc3nc(CSc4ccc(C)cc4)cc(=O)[nH]3)nc(C)c2c1,"inconclusive [inhibitor, full curve, poor fit]"
23,COc1ccc(-n2ncc3c(NCCCN4CCOCC4)ncnc32)cc1,"inconclusive [inhibitor, single point]"
